# Laboratory results as given in PMC4336329 (PLoS ONE, 2015).
# Out of some 310,000 compounds screened, about 14,000 (4.5%) showed an effect of 50% or more. Effects have a minus sign here. Some of the results follow.
# Biological target: human ether-à-go-go-related gene (hERG) potassium channel (human, UniProt Q12809)
# Assay: primary screen, population patch clamp on CHO cells stably expressing hERG
# 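Also: peak tail current of the secondary pulse compared with the same well before compound.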
# Sequence of human ether-à-go-go-related gene (hERG) potassium channel (Q12809 whole entry, looked up): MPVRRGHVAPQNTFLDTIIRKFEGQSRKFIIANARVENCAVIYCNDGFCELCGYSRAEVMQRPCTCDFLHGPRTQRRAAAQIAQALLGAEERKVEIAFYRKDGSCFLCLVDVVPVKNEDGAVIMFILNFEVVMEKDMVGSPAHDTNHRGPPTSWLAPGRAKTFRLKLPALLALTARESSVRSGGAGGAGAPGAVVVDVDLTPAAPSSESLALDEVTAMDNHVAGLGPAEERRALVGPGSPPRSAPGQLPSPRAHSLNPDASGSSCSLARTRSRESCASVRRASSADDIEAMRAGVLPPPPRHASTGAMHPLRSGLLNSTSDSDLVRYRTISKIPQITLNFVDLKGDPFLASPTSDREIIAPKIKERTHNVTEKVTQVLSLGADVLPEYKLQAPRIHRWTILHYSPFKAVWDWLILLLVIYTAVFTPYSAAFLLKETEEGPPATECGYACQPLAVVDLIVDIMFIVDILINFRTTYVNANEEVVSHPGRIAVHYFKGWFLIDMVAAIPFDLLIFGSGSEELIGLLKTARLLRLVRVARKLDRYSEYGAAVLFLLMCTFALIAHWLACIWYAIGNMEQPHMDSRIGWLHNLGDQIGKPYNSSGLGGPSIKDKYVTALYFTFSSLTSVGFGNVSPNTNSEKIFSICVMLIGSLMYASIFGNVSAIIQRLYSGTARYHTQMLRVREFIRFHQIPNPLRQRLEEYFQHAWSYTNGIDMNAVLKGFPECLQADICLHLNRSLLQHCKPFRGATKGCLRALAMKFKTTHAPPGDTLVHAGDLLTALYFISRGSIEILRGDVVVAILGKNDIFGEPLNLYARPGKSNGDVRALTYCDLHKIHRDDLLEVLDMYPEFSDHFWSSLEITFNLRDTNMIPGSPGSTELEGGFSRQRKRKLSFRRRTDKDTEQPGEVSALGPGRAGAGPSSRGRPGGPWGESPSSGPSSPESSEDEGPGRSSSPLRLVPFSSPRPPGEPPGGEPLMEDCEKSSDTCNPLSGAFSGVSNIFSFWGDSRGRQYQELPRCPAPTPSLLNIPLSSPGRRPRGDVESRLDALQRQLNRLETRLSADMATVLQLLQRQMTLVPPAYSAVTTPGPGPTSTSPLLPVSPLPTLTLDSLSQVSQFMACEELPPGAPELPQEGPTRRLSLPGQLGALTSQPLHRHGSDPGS
row,Structure (SMILES),"hERG current change (%, negative = inhibition) at 10uM"
1,C[C@H](NC(=O)c1[nH]cnc1C(=O)Nc1ccc(CNC(=O)OC(C)(C)C)cc1)C(=O)OCc1ccccc1,-1.26%
2,COC(=O)Cn1cnc2c(oc3ccccc32)c1=O,15.2%
3,Cc1nc(S(=O)(=O)c2ccc(Br)cc2)nc2c1CCC2,-8.48%
4,CCCc1[nH]n(-c2ccc([N+](=O)[O-])cc2)c(=O)c1C=NCCc1ccc(OC)c(OC)c1,-19.4%
5,O=C1NC(=O)c2cc([N+](=O)[O-])cc3cccc1c23,4.52%
6,CC[C@H](C)[C@H](NC(N)=O)C(=O)NCCc1ccc(OC)c(OC)c1,20.1%
7,O=C(COC(=O)/C=C/C(=O)OCC(=O)NC12CC3CC(CC(C3)C1)C2)NC12CC3CC(CC(C3)C1)C2,19.3%
8,COCC(=O)N(Cc1cc2ccccc2[nH]c1=O)c1ccccc1OC,11.6%
9,CS(=O)(=O)Cc1ccc(C(=O)N2CCCC2c2cccs2)cc1 (stereo not drawn),16.9%
10,Cc1cc(C(=O)COC(=O)c2ccco2)c(C)n1Cc1ccco1,4.9%
11,CCCCOC(=O)Nc1ccc(S(=O)(=O)Nc2nc(C)cc(C)n2)cc1,5.13%
12,Nc1ccccc1N1CCOCC1,7.22%
13,COc1ccc(NC(=O)CCNC(=O)c2ccccc2Cl)cc1OC,5.24%
14,NS(=O)(=O)c1ccc(NC(=O)CSc2nnc(-c3cnccn3)n2-c2ccccc2)cc1,10.1%
15,O=C(NCCC1=CCCCC1)c1cccc(S(=O)(=O)N2CCCCC2)c1,-9.93%
16,CCOP(=O)(OCC)C(Nc1cc(Cl)cc(Cl)c1)c1cccc(O)c1 (stereo not drawn),-38.6%
17,Oc1oc(-c2ccc(Br)cc2)nc1C=Nc1ccc(Br)cn1,14.1%
18,CCOc1ccc(NC(=O)CN2C(=O)C3CCCN3C2=O)cc1 (stereo not drawn),5.45%
19,O=[N+]([O-])c1ccc2[nH]c(O)c(N=NC(=S)NCC3CCCO3)c2c1 (stereo not drawn),0.292%

row,Structure (SMILES),"hERG current change (%, negative = inhibition) at 10uM"
1,Nc1ccc(Sc2cc(Cl)nc(N)n2)cc1,7.8%
2,CC(C)N(C)S(=O)(=O)c1ccc(NC(=O)C2=COCCO2)cc1,-3.34%
3,CN(CC(=O)Nc1ccc(Cl)c(Cl)c1)C(=O)C12CC3CC(CC(C3)C1)C2,8.7%
4,COC(=O)c1sc2ncccc2c1OCc1ccc(Cl)cc1Cl,4.82%
5,CCn1cc(CNC(=O)c2c(-c3c(Cl)cccc3Cl)noc2C)c(C)n1,-1.38%
6,Cc1ccc(NC2CCCN(C(=O)c3cn4cccc(C)c4n3)C2)cc1C (stereo not drawn),-4.07%
7,O=C(NC1CCNCC1)C1CCCCC1,-6.22%
8,Cc1c(NS(=O)(=O)c2ccc3c(c2)NC(=O)CC(=O)N3)cccc1[N+](=O)[O-],24.3%
9,CC(C)c1ccc(C(C)NCCS(=O)(=O)c2ccc(Br)cc2)cc1 (stereo not drawn),-12.5%
10,C[C@H]1CN=C(N(C)C)N1CCc1ccc(F)cc1,-12.4%
11,COc1ccc(C(=O)CSc2nnc(CNc3ccc(C)cc3C)o2)cc1,11.7%
12,NN(CCO)C(=S)Nc1ccc(Cl)cc1,21.4%
13,COc1ccccc1-c1cc(-c2ccccc2)nc(SCC(=O)O)c1C#N,20.1%
14,O=C(Nc1cc2c(cc1Cl)OCCCO2)c1ccc(F)cc1,4.28%
15,Cc1ccc(/C=C/C(=O)NCc2cccs2)c(C)c1,11.9%
16,Cl.O=C(O)C1CCN(Cc2cccnc2)CC1,28.7%
17,COc1ccccc1N1CCN(C(CNC(=O)C2CCCCC2)c2cccnc2)CC1 (stereo not drawn),-6.45%
18,COc1ccc(C2SCCN2S(=O)(=O)c2ccccc2)cc1OC (stereo not drawn),-2.42%
19,O=C(Nc1cccc(-c2ccc(F)cc2)c1)C1CCCN(Cc2cccnc2)C1 (stereo not drawn),-60.2%

row,Structure (SMILES),"hERG current change (%, negative = inhibition) at 10uM"
1,O=C(O)c1cc(S(=O)(=O)N2CCCCC2)ccc1N1CCCCC1,9.05%
2,CCC(C(=O)OCC(=O)N(CCOC)c1c(N)n(Cc2ccccc2)c(=O)[nH]c1=O)c1ccccc1 (stereo not drawn),-3.03%
3,O=C(NC(Cc1c[nH]c2ccccc12)c1nnc2n1CCCCC2)c1ccccc1 (stereo not drawn),18.7%
4,Cc1nc(N)nc(N/N=C/c2c(F)cccc2Cl)n1,3.11%
5,CC(C)CN(CC(C)C)S(=O)(=O)N1CCC(C(=O)N2CCc3ccccc3C2)CC1,12.2%
6,Cc1nn(C(C)C(=O)NCCN2CCCC2)c(=O)c2c1sc1ccccc12 (stereo not drawn),1.56%
7,CC1=NN(Cc2cc(C(C)(C)C)c(O)c(C(C)(C)C)c2)C(=O)C1,17.2%
8,O=C(Nc1cccnc1)c1ccc(Cl)c([N+](=O)[O-])c1,0.489%
9,COc1ccc(C(C(=O)NC2CCCC2)N(Cc2ccc(C)cc2)C(=O)c2ccn[nH]2)cc1OC (stereo not drawn),1.16%
10,O=C(CCc1ccccc1)NNC(=O)Nc1cccc(Cl)c1,-36.7%
11,CCCc1nc(SCC(=O)N2CCCCCC2)c2c(=O)n(C)c(=O)n(C)c2n1,-25.5%
12,Cc1ccc(-n2c(SCC(=O)NCC3CCCO3)nc3n[nH]c(C)c3c2=N)cc1Cl (stereo not drawn),1.46%
13,O=C(Cc1ccccc1)NN1C(=O)C2C3C=CC([C@@H]2C1=O)C31CC1 (stereo partly drawn),15.7%
14,Cc1ccc(C)c(C(=O)N(C)CC(=O)Nc2ccccc2C(F)(F)F)c1,6.75%
15,CC(C)NS(=O)(=O)c1ccc(OCC(=O)N2CCN(Cc3ccccc3)CC2)cc1,-9.11%
16,N#CCC(=O)NCCCc1ccccc1,17%
17,CCOC(=O)c1cc(CC)sc1NC(=O)c1cc(OC)c(OC)c(OC)c1,8.5%
18,CC(=O)c1ccc(N2C(=NC(=O)C3CCCCC3)SC3CS(=O)(=O)CC32)cc1 (stereo not drawn),-20.7%
19,CN(C)C=O.CNc1nc2[nH]c(=O)c3c(c2s1)OC(N)=C(C#N)C3c1ccccc1 (stereo not drawn),11.6%
